# This is one part of the list.
# Key:
# Assay in all cases: glycan array binding signal (z-score within array); higher = stronger binding
# Settings in all cases: glycan notation: IUPAC condensed, linker removed
# Glc(a1-4)Glc = molecular target: Glc(a1-4)Glc
# Outline: (§1)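 From the Consortium for Functional Glycomics database, 3228 arrays were curated, keeping only those whose protein sequence was available. Binding is given as a within-array Z-score averaged across arrays sharing a protein sequence and across linkers. Negative Z-scores can be read as non-binding.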
# [1] = molecular target: Glc(a1-4)Glc(a1-4)Glc(a1-4)Glc
# Outline: as §1
# Glc(a1-6)Glc(a1-6)Glc = molecular target: Glc(a1-6)Glc(a1-6)Glc
# Outline: as §1
# [2] = molecular target: Glc(a1-6)Glc(a1-6)Glc(a1-6)Glc
# Outline: as §1
# Glc(b1-4)Glc = molecular target: Glc(b1-4)Glc
# Outline: as §1
# Glc(b1-6)Glc = molecular target: Glc(b1-6)Glc
# Outline: as §1
# GlcA(b1-3)Gal = molecular target: GlcA(b1-3)Gal
# Outline: as §1
# GlcA(b1-3)GlcNAc = molecular target: GlcA(b1-3)GlcNAc
# Outline: as §1
# GlcA(b1-6)Gal = molecular target: GlcA(b1-6)Gal
# Outline: as §1
# [3] = molecular target: GlcNAc(a1-3)Gal(b1-4)GlcNAc
# Outline: as §1
# [4] = molecular target: GlcNAc(a1-4)Gal(b1-3)GlcNAc
# Outline: as §1
# [5] = molecular target: GlcNAc(a1-4)Gal(b1-4)GalNAc
# Outline: as §1
# [6] = molecular target: GlcNAc(a1-4)Gal(b1-4)GlcNAc
# Outline: as §1
# [7] = molecular target: GlcNAc(a1-4)Gal(b1-4)GlcNAc(b1-3)Gal(b1-4)Glc
# Outline: as §1
# [8] = molecular target: GlcNAc(a1-4)Gal(b1-4)GlcNAc(b1-3)Gal(b1-4)GlcNAc
# Outline: as §1
# [9] = molecular target: GlcNAc(a1-4)Gal(b1-4)GlcNAc(b1-3)Gal(b1-4)GlcNAc(b1-3)Gal(b1-4)GlcNAc
# Outline: as §1
# [10] = molecular target: GlcNAc(a1-4)Gal(b1-4)GlcNAc(b1-3)Gal(b1-4)[Fuc(a1-3)]GlcNAc(b1-3)Gal(b1-4)[Fuc(a1-3)]GlcNAc
# Outline: as §1
# [11] = molecular target: GlcNAc(a1-6)Gal(b1-4)GlcNAc
# Outline: as §1
# [12] = molecular target: GlcNAc(b1-2)Gal(b1-3)GalNAc
# Outline: as §1
# [13] = molecular target: GlcNAc(b1-2)Man(a1-3)[GlcNAc(b1-2)Man(a1-6)]Man(b1-4)GlcNAc(b1-4)GlcNAc
# Outline: as §1
# [14] = molecular target: GlcNAc(b1-2)Man(a1-3)[GlcNAc(b1-2)Man(a1-6)]Man(b1-4)GlcNAc(b1-4)[Fuc(a1-6)]GlcNAc
# Outline: as §1
# [15] = molecular target: GlcNAc(b1-2)Man(a1-3)[GlcNAc(b1-4)][GlcNAc(b1-2)Man(a1-6)]Man(b1-4)GlcNAc(b1-4)GlcNAc
# Outline: as §1
# [16] = molecular target: GlcNAc(b1-2)[GlcNAc(b1-4)]Man(a1-3)[GlcNAc(b1-2)Man(a1-6)]Man(b1-4)GlcNAc(b1-4)GlcNAc
# Outline: as §1
# [17] = molecular target: GlcNAc(b1-2)[GlcNAc(b1-4)]Man(a1-3)[GlcNAc(b1-4)][GlcNAc(b1-2)Man(a1-6)]Man(b1-4)GlcNAc(b1-4)GlcNAc
# Outline: as §1
# [18] = molecular target: GlcNAc(b1-2)[GlcNAc(b1-4)]Man(a1-3)[GlcNAc(b1-4)][GlcNAc(b1-2)[GlcNAc(b1-6)]Man(a1-6)]Man(b1-4)GlcNAc(b1-4)GlcNAc
# Outline: as §1
# [19] = molecular target: GlcNAc(b1-2)[GlcNAc(b1-4)]Man(a1-3)[GlcNAc(b1-4)][GlcNAc(b1-2)[GlcNAc(b1-6)]Man(a1-6)]Man(b1-4)GlcNAc(b1-4)[Fuc(a1-6)]GlcNAc
# Outline: as §1
# [20] = molecular target: GlcNAc(b1-2)[GlcNAc(b1-6)]Man(a1-6)[GlcNAc(b1-2)Man(a1-3)]Man(b1-4)GlcNAc(b1-4)GlcNAc
# Outline: as §1
# [21] = molecular target: GlcNAc(b1-2)[GlcNAc(b1-6)]Man(a1-6)[GlcNAc(b1-2)Man(a1-3)]Man(b1-4)GlcNAc(b1-4)[Fuc(a1-6)]GlcNAc
# Outline: as §1
# [22] = molecular target: GlcNAc(b1-2)[GlcNAc(b1-6)]Man(a1-6)[GlcNAc(b1-2)Man(a1-3)][GlcNAc(b1-4)]Man(b1-4)GlcNAc(b1-4)GlcNAc
# Outline: as §1
# GlcNAc(b1-3)Gal = molecular target: GlcNAc(b1-3)Gal
# Outline: as §1
binder,measurement,setting,value
"PitA (Streptococcus oralis), G3F8D8 (protein) MNIRFDFKKVQIIARRLVTLLAILFLCAPISLLNADSTTEPQTTLHKTITPISGQDDKYELSLDITSKLGTETQTDPLDVVLVADLSGSMQNQDVQSFDGRTISRIDALKNTLRGTNGRKGLIDTILSNSNNRLSMVGFGGKIDNKKVDQYWDGNKWRLFRPYWPYERMTKYYDGVSPWDDANTILGWSNNARAAKTAVYNMSIAGGNSIGTESGIGTGTNIGAGLTLANQLMGSARSNAKKVVILLSDGFANMVYDANGYTIYNYNNEDPNIETAPQWFWDRLNNNLNSLSYSLAPTLDGFYSIKFRYSNNVDSITSLQYYMRQHNASIPNEIFSANDEDQLRDSFKDITDKILPLGIHHVSIKDVLSKYVQLLPNGSSEFRVVKEKDGSSEILIENQVTFDTKTTSEGLVEVTAKFSPNYSLEDGARYVLKFTVTSSQEALDAIAGDKKLEAGDAEGSDVNKLYSNKGASVTYSYGIGNSQTKTKEYSDNPTFKPSDPLTVPVEVEWQGVTGARTVITADQPSNVELKLVQKNKNGGSDNQDYRKTNVNVSKNVSNETRNFEKVAKGYQYDLIAPDVPAFTKEIKNVGTESKPSFKVIYKQLPSLTIKKVLEAENNLNKEFRIKVKLTSPDSKPLNGTFGEITVVNGEAEIRVEKRKRWEGILSYLPRGTHYKVEEEAASTNGYHVTYENQEGDLNKDETSIVTNHKLPSLSVTKKVTGVFANLLKSFKITINIRDAQNSPLNGTYTATVNNKRTPLQFTNGRASIDLNKDQTIKIYGLPLDSHYTVEEESNSSRGYQVSYENQEGKLDGDKSATVTNNKNSVPETGVDFLSSTLMLGIILPLGGIFFTILLGYLVVHRRK",glycan array binding signal (z-score),Glc(a1-4)Glc,0.019
same,glycan array binding signal (z-score),[1],0.317
same,glycan array binding signal (z-score),Glc(a1-6)Glc(a1-6)Glc,-0.253
same,glycan array binding signal (z-score),[2],0.864
same,glycan array binding signal (z-score),Glc(b1-4)Glc,-0.186
same,glycan array binding signal (z-score),Glc(b1-6)Glc,0.049
same,glycan array binding signal (z-score),GlcA(b1-3)Gal,0.067
same,glycan array binding signal (z-score),GlcA(b1-3)GlcNAc,-0.46
same,glycan array binding signal (z-score),GlcA(b1-6)Gal,-0.511
same,glycan array binding signal (z-score),[3],-0.268
same,glycan array binding signal (z-score),[4],-0.623
same,glycan array binding signal (z-score),[5],5.14
same,glycan array binding signal (z-score),[6],-0.543
same,glycan array binding signal (z-score),[7],1.05
same,glycan array binding signal (z-score),[8],-0.052
same,glycan array binding signal (z-score),[9],-0.541
same,glycan array binding signal (z-score),[10],3.75
same,glycan array binding signal (z-score),[11],-0.566
same,glycan array binding signal (z-score),[12],-0.34
same,glycan array binding signal (z-score),[13],-0.254
same,glycan array binding signal (z-score),[14],-0.417
same,glycan array binding signal (z-score),[15],-0.119
same,glycan array binding signal (z-score),[16],-0.44
same,glycan array binding signal (z-score),[17],-0.28
same,glycan array binding signal (z-score),[18],-0.52
same,glycan array binding signal (z-score),[19],-0.565
same,glycan array binding signal (z-score),[20],-0.219
same,glycan array binding signal (z-score),[21],0.736
same,glycan array binding signal (z-score),[22],-0.462
same,glycan array binding signal (z-score),GlcNAc(b1-3)Gal,-0.033
